Measured values published in the supplement of paper PMC3334620.
Whole data set: some 33,000 sequences, median “E-score (-0.5 to 0.5)” near -0.01, cut for the highest 2% near 0.26. Some of the results follow.

What follows are sequences tested against Ste12 (UniProt P13574) (assay: PBM E-score (8-mer binding enrichment) (E-score (-0.5 to 0.5)); higher = stronger / more preferred TF binding; most listed sequences are background and not binding sites). Settings: protein concentration: 200 nM; construct: GST-DNA-binding domain.
How it was run: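 Universal all-10-mer Agilent arrays, double-stranded by primer extension on fresh or once-stripped slides, were probed with about 100-200 nM GST-tagged yeast transcription factors made by PURExpress. Fluorescent anti-GST detected bound protein, and masliner normalised the scans. E-scores from the Universal PBM Analysis Suite were given to each ungapped eight-base word pooled with its reverse complement.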

Row | Sequence | PBM E-score
1 | CGCACCAC | 0.0559
2 | TCGCTGAA | 0.16
3 | CACCTTCG | -0.166
4 | GGGTATAC | -0.0489
5 | CGAATTAG | 0.095
6 | GCGGACTA | -0.0505
7 | ATACATTG | -0.0453
8 | ATGTAGGC | -0.134
9 | AGGCGGAA | -0.0949
10 | GGGCGGTA | -0.0589
11 | TCGCACAA | 0.0442
12 | AGGCAACA | -0.14
13 | AGGTCAAT | 0.0292
14 | AGAGCGTC | -0.193
15 | GGCAGCTA | 0.016
16 | GTGCATCA | 0.0365
17 | ACACGGTG | -0.116
18 | CGGATCGA | 0.0353
19 | AAAGGCGA | -0.131
20 | GGCGCTAC | -0.347
21 | CCACGGTC | -0.209
22 | ACGACCAT | -0.127
23 | CCAACCCA | -0.154
24 | ATTCAGGC | 0.107
25 | ATTCCTAG | 0.0776

Row | Sequence | PBM E-score
26 | ACGGCTTG | -0.0342
27 | CGGTGTGC | -0.25
28 | TATCTGGA | -0.168
29 | ACTTCTAC | -0.032
30 | CGCCGACA | -0.0997
31 | CACGCCGC | -0.065
32 | AGCGTGTC | -0.123
33 | ACTGTACA | -0.124
34 | TAAAAAAA | 0.313
35 | GGTTGAGA | -0.103
36 | AAGGCAGG | -0.145
37 | AACGTGAG | -0.0454
38 | CAGAACTG | 0.157
39 | AATATTCT | 0.178
40 | AGCGGTAT | 0.146
41 | CGGACCCA | -0.184
42 | CAGCCAAC | -0.0527
43 | CTATATAA | 0.174
44 | ATGAATCC | 0.0829
45 | CTGATGCA | 0.099
46 | ATGGTGAA | 0.141
47 | AAAACTAA | 0.219
48 | GCATTCCA | -0.228
49 | CGTACGTA | -0.139
50 | AGCGCAGA | 0.00465

Row | Sequence | PBM E-score
51 | CGCGAAAC | 0.211
52 | CAGCCGAA | -0.0783
53 | CACGGGAG | -0.186
54 | ACGGGCCT | -0.249
55 | CGCCGGTA | -0.0112
56 | AAACTATT | 0.188
57 | GATCCGGC | -0.0168
58 | GTTAAGTA | 0.0631
59 | CTCATATA | -0.0135
60 | CGCATCCC | 0.0337
61 | AATATCGA | 0.127
62 | ACAAGCGT | -0.0567
63 | AATAAGGT | 0.102
64 | ATGATAAG | 0.128
65 | ATCTAGGA | -0.00986
66 | CCAGTGCG | -0.171
67 | CATGTTGC | -0.0677
68 | ACCAATTC | 0.0145
69 | CGGCTCCA | -0.0979
70 | ATTCCGCC | 0.099
71 | CAAACAGA | 0.12
72 | CCACTCGG | -0.281
73 | TATACGCA | -0.0776
74 | AGTCGCGC | 0.115
75 | CCGATGAC | -0.111

Row | Sequence | PBM E-score
76 | CGTCCTGC | -0.0864
77 | CGATGACC | -0.0798
78 | ACAGCGAT | -0.112
79 | ATCTTTAG | 0.119
80 | AGGCTTAG | -0.021
81 | GCAAGGAA | -0.112
82 | AATTAAAC | 0.241
83 | CAAAGTAC | -0.0376
84 | CACGAATA | -0.0873
85 | AGATTCTA | 0.153
86 | ACCCGTAT | -0.0492
87 | GCGTCTAC | -0.233
88 | CAGCCATC | -0.0408
89 | AGCGGGCG | -0.089
90 | ATACTACG | 0.106
91 | CTATCCGC | -0.0766
92 | GACCCAGC | -0.253
93 | CTTATTGA | 0.0551
94 | CAGGTCGG | 0.057
95 | ACCACTTA | -0.0266
96 | GCAGGAGA | -0.0128
97 | ACGCCGAA | -0.0635
98 | CGAACCCG | -0.0547
99 | CAATAGGA | -0.058
100 | ACAAACGC | 0.13

Row | Sequence | PBM E-score
101 | AACATTAC | 0.0687
102 | CGAAACCA | 0.209
103 | ACCGATAT | -0.00073
104 | CATCAATA | 0.177
105 | CTCGGTAA | -0.107
106 | AGATATCT | -0.158
107 | AACAACAC | 0.154
108 | AAGAGACT | 0.00125
109 | CCATTCGG | -0.14
110 | AAGCTTAT | -0.0154
111 | AGATGGGC | -0.127
112 | TAGTAATA | 0.0871
113 | ACTACCAT | -0.0168
114 | ACTAGGGA | -0.00094
115 | GCTCATTA | 0.115
116 | ATTACGGC | -0.0675
117 | GTTGGAAA | 0.0291
118 | TACGTTAA | 0.0218
119 | AGAATCTC | -0.0563
120 | CGTACCCA | 0.00206
121 | AGTGCGAA | -0.204
122 | CTAGCCAA | 0.145
123 | AATACTCT | 0.133
124 | ATCCCTCA | -0.2
125 | CATTTGCG | 0.0745

Row | Sequence | PBM E-score
126 | ACGTCCAG | -0.198
127 | AGAAGACT | -0.22
128 | ATAATTTA | 0.357
129 | CGACCGTA | -0.161
130 | ACGATTGA | 0.158
131 | CCACCCGA | 0.0148
132 | CAGAGTTA | 0.0591
133 | GAGCCCTC | -0.0722
134 | GTGCTATA | -0.0325
135 | CTTCAAGC | -0.0689
136 | GGGTTCCA | -0.122
137 | ACTGCAGG | -0.194
138 | AGGCATAT | -0.108
139 | AAACAGAG | 0.154
140 | ATACCTTG | -0.0745
141 | ATAGGAAC | -0.153
142 | CCGGCCCG | 0.00367
143 | GGTATACA | -0.0232
144 | CCGCCTCC | -0.123
145 | GCACCACA | 0.0251
146 | TAACGAGA | 0.00312
147 | AGCACCAG | -0.0865
148 | AAAACCAT | 0.158
149 | AGATGTGC | -0.154
150 | TTATTGAA | 0.123

Row | Sequence | PBM E-score
151 | CGGTGGCA | -0.148
152 | CGACCTTA | 0.111
153 | AAGTTCTA | -0.064
154 | AATAGGTA | 0.0275
155 | CAATTCTA | 0.167
156 | ACCTGCAA | -0.0499
157 | CGCCAAGA | -0.0545
158 | ATACATGA | 0.169
159 | GCCGCTAA | -0.00666
160 | AGCTGTAC | -0.298
161 | ATTCATGG | 0.0355
162 | CATTGAAA | 0.247
163 | CCCATGGA | -0.0521
164 | GAGTCACC | -0.286
165 | CGCTTGTA | 0.156
166 | AAAGGGAG | -0.0327
167 | CTATTGTA | 0.00583
168 | ACCTAGGA | 0.0531
169 | GCCGGCAA | 0.0276
170 | ACACTGGG | -0.17
171 | ATATCTTA | 0.141
172 | TCATCTCA | 0.197
